Assay results: paper PMC10668032
The other results are listed elsewhere or left out. At the low end of the ranking, values are background and their order means little.

Each sequence was assayed against SIX1-Q177R homeodomain (UniProt Q15475) (assay: universal protein binding microarray). Conditions: Universal all-10-mer PBM (8x60K, AMADID 030236), 300 nM GST-tagged protein, Alexa Fluor 488 anti-GST; buffer, salt, pH and temperature not stated; high values mean tight binding; most listed sequences are background and not binding sites; double strand, one strand shown.

Row | Sequence | binding signal
1 | AATGTTGG | -0.156 E-score
2 | ACCCTTCA | 0.166 E-score
3 | GAATTCGC | -0.15 E-score
4 | CAGAATCC | -0.164 E-score
5 | AAGAAGTG | 0.181 E-score
6 | CCATTAGA | 0.008 E-score
7 | AACCGTAC | 0.107 E-score
8 | GATACGTA | 0.0647 E-score
9 | CCCATAGA | -0.0494 E-score
10 | ACGTGCAA | -0.127 E-score
11 | CCTGTAAC | -0.0219 E-score
12 | CATACCCC | 0.205 E-score
13 | ACAGCATA | -0.262 E-score
14 | ACAGATCT | -0.397 E-score
15 | ACTGTTAG | -0.137 E-score
16 | ACTGCTTA | -0.137 E-score
17 | TCTTCTCA | -0.135 E-score
18 | TTCGCGAA | 0.034 E-score
19 | CGCCGATA | 0.0802 E-score
20 | ATTGAGCG | -0.137 E-score
21 | CAAGAGTC | -0.0267 E-score
22 | CCCCCGAG | 0.188 E-score
23 | ATCTAGTG | 0.232 E-score
24 | GGCTGATA | 0.145 E-score
25 | ACATGGAA | -0.106 E-score

Row | Sequence | binding signal
26 | ACTACCAT | -0.0374 E-score
27 | CGCTTTAG | -0.0015 E-score
28 | CTATAAAA | -0.183 E-score
29 | CACTTATC | 0.0695 E-score
30 | CACTTCAG | 0.106 E-score
31 | CCTGGCCC | -0.121 E-score
32 | GAAAGCCC | -0.08 E-score
33 | CGGTGAAG | -0.169 E-score
34 | ACTTTGCG | 0.0268 E-score
35 | AGCGGTTA | -0.215 E-score
36 | GATTGCCC | -0.237 E-score
37 | AGAGCTCG | -0.133 E-score
38 | ATGTACTC | 0.0779 E-score
39 | CCTAACCA | 0.108 E-score
40 | GATAAGCC | -0.184 E-score
41 | AAAATTCC | -0.1 E-score
42 | CCTGTCTC | -0.174 E-score
43 | GAGCAGGA | -0.0971 E-score
44 | GCCTAGTA | -0.168 E-score
45 | ATATTCAA | -0.313 E-score
46 | AGGTGAAC | -0.0908 E-score
47 | GACGTCAC | -0.0216 E-score
48 | AGCTGCAA | -0.271 E-score
49 | AGGTCGCA | -0.186 E-score
50 | GACTGTGC | -0.0602 E-score

Row | Sequence | binding signal
51 | AGCGCTAA | -0.21 E-score
52 | ATAAAAGC | -0.233 E-score
53 | GCGGCACC | 0.0983 E-score
54 | AATCCCTG | -0.0117 E-score
55 | GCCGAGGC | -0.0807 E-score
56 | GACGGTCC | -0.167 E-score
57 | CCTACTCC | 0.179 E-score
58 | CGGATCGA | -0.0219 E-score
59 | TAGGCTAA | -0.0334 E-score
60 | AGGCGTGG | -0.0826 E-score
61 | GTCGAGTA | 0.198 E-score
62 | GTACACAC | 0.355 E-score
63 | ATGGTGGC | 0.0215 E-score
64 | TATTGCGA | 0.106 E-score
65 | ATGATAAA | -0.16 E-score
66 | GGCCGCCC | -0.207 E-score
67 | CATCATGA | -0.0511 E-score
68 | AGCGGATC | 0.0137 E-score
69 | AGGGTACA | 0.237 E-score
70 | GGATTCCC | 0.09 E-score
71 | TACTGTGA | -0.124 E-score
72 | GATTGGGA | -0.135 E-score
73 | GGACATGA | -0.203 E-score
74 | AGTTTACC | 0.00313 E-score
75 | GTTCGGAA | -0.0994 E-score

Row | Sequence | binding signal
76 | GTTCCGGA | 0.175 E-score
77 | ACTACTCG | 0.203 E-score
78 | CACTTACC | 0.224 E-score
79 | ACAATGTA | 0.0524 E-score
80 | TGCCGGCA | 0.0673 E-score
81 | AAAGGACT | -0.266 E-score
82 | CAGATCGC | -0.0695 E-score
83 | CAGGTTCA | -0.0119 E-score
84 | ATTTTGTA | -0.185 E-score
85 | ATGGCGCA | -0.0733 E-score
86 | ATCGGAGG | 0.124 E-score
87 | AAGTCCAA | -0.255 E-score
88 | CTGATATA | 0.00826 E-score
89 | AGCACCGG | 0.206 E-score
90 | ACGCACTA | 0.0667 E-score
91 | CCAGCCCA | -0.0709 E-score
92 | AGTAAGTA | -0.0725 E-score
93 | CACGTATA | 0.21 E-score
94 | CGCATTCC | -0.164 E-score
95 | CGGCTGAC | 0.174 E-score
96 | GGACACGA | 0.356 E-score
97 | GTAGACAA | 0.0524 E-score
98 | GGAGAAAC | 0.0311 E-score
99 | CGACGTCA | -0.282 E-score
100 | CTGCCATC | -0.244 E-score

Row | Sequence | binding signal
101 | ACAATCGT | -0.152 E-score
102 | CTCAGCCA | -0.196 E-score
103 | CCTAGACG | -0.163 E-score
104 | CGCTATAC | 0.0171 E-score
105 | ATGTCGGA | 0.0279 E-score
106 | CTTGATGC | -0.234 E-score
107 | CAAGGTCG | -0.0416 E-score
108 | ATACATAG | -0.11 E-score
109 | TCGGTGCA | 0.232 E-score
110 | CAAACGAG | 0.042 E-score
111 | AATTTCTA | 0.0566 E-score
112 | CACGGCGC | 0.139 E-score
113 | CACCCCTG | 0.351 E-score
114 | AAATGGTC | -0.023 E-score
115 | ATTACGGA | -0.131 E-score
116 | CAAAATCA | -0.168 E-score
117 | AGGACTAC | -0.0622 E-score
118 | AATAACAC | 0.426 E-score
119 | ATTATACC | 0.141 E-score
120 | CCACGTGG | 0.098 E-score
121 | CCACCTAG | -0.018 E-score
122 | ATAGTCGG | 0.0728 E-score
123 | ATGCGCTC | 0.0171 E-score
124 | GAGGCTCA | -0.172 E-score
125 | ATTAGCCG | -0.0403 E-score

Row | Sequence | binding signal
126 | CCATTACC | 0.0802 E-score
127 | CTAAATCC | -0.0651 E-score
128 | GAAACATA | -0.0987 E-score
129 | CGGTGCCA | 0.19 E-score
130 | AAACCCTT | -0.049 E-score
131 | CGAGTAAA | -0.109 E-score
132 | CAAGTTTA | -0.133 E-score
133 | CACAGCCG | 0.208 E-score
134 | CTTCCGGA | -0.131 E-score
135 | GTCGATTA | 0.0341 E-score
136 | ATATCGTC | -0.0159 E-score
137 | CGTAACAA | -0.165 E-score
138 | CATCCCAA | -0.137 E-score
139 | GTTAAAGA | -0.0682 E-score
140 | ACATTACC | 0.0295 E-score
141 | AACTCTAC | 0.0642 E-score
142 | CAGTGACC | 0.144 E-score
143 | TCTCAAGA | -0.262 E-score
144 | CATCAGTC | -0.193 E-score
145 | GGAGGACA | 0.246 E-score
146 | ACCGAGCA | -0.00483 E-score
147 | AAGAACAG | -0.0217 E-score
148 | AACTTTCG | -0.171 E-score
149 | AGGTATGA | -0.0502 E-score
150 | ACGTACTG | -0.0409 E-score

Row | Sequence | binding signal
151 | CGAATTAG | -0.0119 E-score
152 | GTCCACAC | 0.211 E-score
153 | ATATTCGA | -0.131 E-score
154 | GACTCCGA | 0.198 E-score
155 | AAGTGTAG | 0.37 E-score
156 | TCTTCGAA | -0.0753 E-score
157 | AGTACCAG | 0.00298 E-score
158 | ATAGAGGG | 0.0878 E-score
159 | CACAGAGC | -0.144 E-score
160 | GTTAGGCA | -0.0878 E-score
161 | CTGTTTTA | -0.196 E-score
162 | GAGCGAGC | -0.118 E-score
163 | CTGTTAAA | -0.225 E-score
164 | AGGAGAAA | -0.253 E-score
165 | ATTCTTTC | -0.208 E-score
166 | TATACTCA | -0.0349 E-score
167 | CATTACCG | -0.116 E-score
168 | GACGCCGC | 0.151 E-score
169 | GGGCCGCA | 0.108 E-score
170 | ATCATCTA | -0.109 E-score
171 | GACAATAC | -0.005 E-score
172 | CGCACTAC | 0.152 E-score
